The source of these data is patent US9012397B2 (priority 2011, dated 2015).

Format in all cases: in vivo, human
In one test the test system is cuts in the skin. The conditions noted are these: 4 subjects; 50 μg/gr cream. As to the method:
(§1) The method of the invention has been carried out with respect to a number of skin disorders. The patients were treated with one of two peptides, each at a concentration of 50 μg/gr cream (unless otherwise indicated):
The cream was manufactured by Amiga LTD, Israel, and contains the following components: […]

In test [1] the test system is lesions in the oral cavity. As to the method:
as §1
(§2) The cream was manufactured by Amiga LTD, Israel, and contains the following components:
1. A person had several lesions in the middle of the oral cheek cavity (5 lesions of about 3-4 mm each).
3. […] After several weeks the treatment was renewed using toothpaste as a vehicle for the peptides.
5. […] The wound closed completely after 2 days. E. Rashes

Test [2] has as its system Fire Ant (Solenopsis spp.) stings. The conditions noted are these: person four, sole of foot; 50 μg/gr cream several times per day. As to the method: as §1, §2
6. person four stepped on a Fire Ant (Solenopsis spp.) nest in Utah, USA, and received stings on the sole of their foot. They felt an extremely strong pain sensation.

Where [3] appears, read: person, lesions generally require 7-10 days to heal, 1000 μg/gr cream.

Where two headings read alike, the source gives them in different places.

On to pGLU-ASN-TRP-LYS-C8 [ZEP3], for which the clinical outcome in the test with cuts in the skin is “effective in closing the wounds without inflammation”; in test [1] (person, 5 lesions of about 3-4 mm in oral cheek cavity, 50 μg/gr cream) it was “almost immediate relief from itching and swelling”; in test [1] (setting [3]), “almost immediate relief from itching and pain of the wound”. Also, in test [1] (setting [3]), the “time until wound closed completely” value was 2 days.
On to pGLU-ASN-TRP-THR [ZEP4], for which the clinical outcome is “almost immediate relief in the mouth” in test [1] (cancer patient, chemotherapy lesions in oral cavity and on lips, 500 μg/gr cream, discontinued due to bad taste); “almost immediate relief from itching and swelling” in test [1] (person, lesion on right side of oral cavity, 50 μg/gr cream); “almost immediate relief from itching and pain of the wound” in test [1] (setting [3]); “almost immediate relief and the lesion disappeared” in test [1] (person, 500 μg/gr cream); “a reduction in the pain sensation” in test [2]. Moreover, in test [1] (setting [3]), the “time until wound closed completely” value worked out at 2 days. Moreover, the time to relief in test [2] fell in the range of 2 to 3 min.
